Source: article PMC11995724, “Antibiotic target discovery by integrated phenotypic and activity-based profiling of electrophilic fragments” (Cell chemical biology, 2025)
The campaign covered roughly 3,200 compounds. About 110 (3.4%) showed an effect of 50% or more. The list shows a part of the results.

System: T1, V. cholerae SAD30
T1 construct: SAD30
Design: species or system S. aureus MSSA476 (TSB) or V. cholerae SAD30 (LB); 384-well bacterial growth screen at 25 uM, OD600 relative to DMSO control
Conditions: relative growth, OD600, LB; 25 µM; inhibitor

Structure (SMILES) | % of control remaining
CCc1cccc(CC)c1NC(=O)C(C#N)=Cc1ccc(C)o1 [8-P11, 2-cyano-N-(2,6-diethylphenyl)-3-(5-methylfuran-2-yl)prop-2-enamide] | 57.308%
C=CC(=O)NCc1c(C)nc2ccccn12 [1-C08, N-({2-methylimidazo[1,2-a]pyridin-3-yl}methyl)prop-2-enamide] | 93.2735%
CC(=Cc1ccccc1)C=C(C#N)C(=O)NC1CC1 [9-F12, 2-cyano-N-cyclopropyl-4-methyl-5-phenylpenta-2,4-dienamide] | 87.8994%
C=CC(=O)NCCCn1ccnc1C#N [2-N05, N-[3-(2-cyano-1H-imidazol-1-yl)propyl]prop-2-enamide] | 93.5926%
CCOc1ccc(C=C(C#N)C(=O)Nc2ccncc2)cc1 [8-I22, 2-cyano-3-(4-ethoxyphenyl)-N-(pyridin-4-yl)prop-2-enamide] | 87.4915%
Cc1ccc(NC(=O)C(C#N)=Cc2ccc3c(c2)OCCO3)c(C)c1 [9-H03, 2-cyano-3-(2,3-dihydro-1,4-benzodioxin-6-yl)-N-(2,4-dimethylphenyl)prop-2-enamide] | 99.3202%
CC(Cl)C(=O)N[C@H]1C[C@@H]1c1cnn(-c2ccccc2)c1 (mixture of isomers) [7-M08, rac-2-chloro-N-[(1R,2S)-2-(1-phenyl-1H-pyrazol-4-yl)cyclopropyl]propanamide] | 70.3122%
CC(Cl)C(=O)NCCc1nnnn1-c1ccccc1 (stereo not drawn) [7-G17, 2-chloro-N-[2-(1-phenyl-1H-1,2,3,4-tetrazol-5-yl)ethyl]propanamide] | 78.3744%
Cc1ccccc1N1C(=O)C=CC1=O [10-J13, 1-(2-methylphenyl)-2,5-dihydro-1H-pyrrole-2,5-dione] | 23.0664%
C=CC(=O)N1CCCC(n2cncn2)C1 (stereo not drawn) [2-C03, 1-[3-(1H-1,2,4-triazol-1-yl)piperidin-1-yl]prop-2-en-1-one] | 109.65%
Cc1noc(C23CC(CN2C(=O)C(C)Cl)C3)n1 (stereo not drawn) [7-E10, 2-chloro-1-[1-(3-methyl-1,2,4-oxadiazol-5-yl)-2-azabicyclo[2.1.1]hexan-2-yl]propan-1-one] | 77.9779%
CC(Cl)C(=O)N1C2C=C(c3ccccc3)CC1CC2 (stereo not drawn) [7-C09, 2-chloro-1-{3-phenyl-8-azabicyclo[3.2.1]oct-2-en-8-yl}propan-1-one] | 69.9157%
Cl.O=C(CN1CCN(C(=O)CCl)CC1)Nc1ccc(F)cc1 [4-J20, 2-[4-(2-chloroacetyl)piperazin-1-yl]-N-(4-fluorophenyl)acetamide hydrochloride] | 97.8219%
N#CC(=Cc1ccccc1)C(=O)Nc1nnn[nH]1 [8-J14, 2-cyano-3-phenyl-N-(1H-1,2,3,4-tetrazol-5-yl)prop-2-enamide] | 68.1849%
N#CC(=Cc1ccc([N+](=O)[O-])c(Cl)c1)C(=O)NC1CCCCC1 [8-B08, 3-(3-chloro-4-nitrophenyl)-2-cyano-N-cyclohexylprop-2-enamide] | 77.2944%
C=CC(=O)N1CCC(c2ccnn2C)CC1 [2-I15, 1-[4-(1-methyl-1H-pyrazol-5-yl)piperidin-1-yl]prop-2-en-1-one] | 94.8278%
CC(Cl)C(=O)N(Cc1cccs1)[C@@H]1C=C[C@H](CO)C1 (stereo partly drawn) [7-E14, 2-chloro-N-[(1S,4R)-4-(hydroxymethyl)cyclopent-2-en-1-yl]-N-[(thiophen-2-yl)methyl]propanamide] | 72.8234%
O=C(CCl)c1ccc2[nH]c(=O)[nH]c2c1 [10-I14, 5-(2-chloroacetyl)-2,3-dihydro-1H-1,3-benzodiazol-2-one] | 105.513%
N#CC(=Cc1cccc(O)c1)C(=O)NCCc1ccccc1 [8-N03, 2-cyano-3-(3-hydroxyphenyl)-N-(2-phenylethyl)prop-2-enamide] | 85.4521%
COCCNC(=O)C(C#N)=Cc1ccc(O)cc1 [9-D22, 2-cyano-3-(4-hydroxyphenyl)-N-(2-methoxyethyl)prop-2-enamide] | 97.0088%
C=CC(=O)N(Cc1cc(F)c(F)c(F)c1)C(C)C1CCCO1 (stereo not drawn) [1-L13, N-[1-(oxolan-2-yl)ethyl]-N-[(3,4,5-trifluorophenyl)methyl]prop-2-enamide] | 84.006%
C=CC(=O)N1CC(c2ncon2)C1 [2-I03, 1-[3-(1,2,4-oxadiazol-3-yl)azetidin-1-yl]prop-2-en-1-one] | 109.804%
Cc1nc(C)c(C(=O)CCl)o1 [10-N08, 2-chloro-1-(2,4-dimethyl-1,3-oxazol-5-yl)ethan-1-one] | 41.4572%

Structure (SMILES) | % of control remaining
Cc1ccc(C=C(C#N)C(=O)NC(C)C)o1 [8-I21, 2-cyano-3-(5-methylfuran-2-yl)-N-(propan-2-yl)prop-2-enamide] | 78.9259%
COc1ccc(CCNC(=O)C(C)Cl)cc1 (stereo not drawn) [5-D12, 2-chloro-N-[2-(4-methoxyphenyl)ethyl]propanamide] | 91.9618%
C=CC(=O)N1CCC(C(=O)N2CCC(c3ncco3)CC2)CC1 [2-B06, 1-{4-[4-(1,3-oxazol-2-yl)piperidine-1-carbonyl]piperidin-1-yl}prop-2-en-1-one] | 96.2173%
CC(C)NC(=O)C(C#N)=Cc1ccc(Cl)cc1Cl [9-K07, 2-cyano-3-(2,4-dichlorophenyl)-N-(propan-2-yl)prop-2-enamide] | 86.6757%
C=CCNC(=O)C(C#N)=Cc1ccc(C#N)cc1 [8-O07, 2-cyano-3-(4-cyanophenyl)-N-(prop-2-en-1-yl)prop-2-enamide] | 73.0795%
C=CC(=O)N1CC(OCc2ccccc2F)C1 [3-I15, 1-{3-[(2-fluorophenyl)methoxy]azetidin-1-yl}prop-2-en-1-one] | 89.6196%
Cc1cc(CN(Cc2ccn(C)n2)C(=O)CCl)ccc1F [5-G14, 2-chloro-N-[(4-fluoro-3-methylphenyl)methyl]-N-[(1-methyl-1H-pyrazol-3-yl)methyl]acetamide] | 96.6691%
C=CC(=O)N1C2CCCC1CC1(C2)NC(=O)NC1=O (stereo not drawn) [2-K06, 9-(prop-2-enoyl)-9-azaspiro[bicyclo[3.3.1]nonane-3,4'-imidazolidine]-2',5'-dione] | 89.5783%
C=CC(=O)NC1CC(=O)N(CC)C1 (stereo not drawn) [2-O22, N-(1-ethyl-5-oxopyrrolidin-3-yl)prop-2-enamide] | 103.32%
CCC(NC(=O)CCl)c1ccc(C)cc1 (stereo not drawn) [4-K17, 2-chloro-N-[1-(4-methylphenyl)propyl]acetamide] | 97.3043%
C=CC(=O)N1CCC(C(=O)N[C@H]2CCC[C@H]2O)CC1 [2-K04, N-[(1S,2R)-2-hydroxycyclopentyl]-1-(prop-2-enoyl)piperidine-4-carboxamide] | 95.9085%
O=C(O)c1csc(C(=O)CCl)c1 [10-E22, 5-(2-chloroacetyl)thiophene-3-carboxylic acid] | 102.864%
Cl.O=C(CN1CCN(C(=O)CCl)CC1)Nc1cccc(F)c1 [5-P19, 2-[4-(2-chloroacetyl)piperazin-1-yl]-N-(3-fluorophenyl)acetamide hydrochloride] | 107.261%
O=C(CCl)NC1CCCc2nc(-c3ccccc3)sc21 (stereo not drawn) [7-B04, 2-chloro-N-(2-phenyl-4,5,6,7-tetrahydro-1,3-benzothiazol-7-yl)acetamide] | 86.833%
O=C(CCl)NC1CCCN(c2cc(N3CCOCC3)ncn2)C1 (stereo not drawn) [4-N21, 2-chloro-N-{1-[6-(morpholin-4-yl)pyrimidin-4-yl]piperidin-3-yl}acetamide] | 107.138%
N#CC(C(=O)CCl)=C1NC2=C(CCc3ccccc32)S1 [10-N10, 4-chloro-2-{1H,2H,4H,5H-naphtho[1,2-d][1,3]thiazol-2-ylidene}-3-oxobutanenitrile] | 91.3306%
O=C1CCc2cc(C(=O)CCl)c(F)cc2N1 [10-O20, 6-(2-chloroacetyl)-7-fluoro-1,2,3,4-tetrahydroquinolin-2-one] | 36.6258%
COc1ccc(CCNC(=O)CCl)cc1 [5-H12, 2-chloro-N-[2-(4-methoxyphenyl)ethyl]acetamide] | 68.593%
CN(C)C(=O)c1ccc(CNC(=O)CCl)cc1 [6-C16, 4-[(2-chloroacetamido)methyl]-N,N-dimethylbenzamide] | 88.7288%
Cc1cc(C(=O)CCl)c(C)n1CC1CCCO1 (stereo not drawn) [10-B08, 2-chloro-1-{2,5-dimethyl-1-[(oxolan-2-yl)methyl]-1H-pyrrol-3-yl}ethan-1-one] | 94.2918%
N#CC1=C(N2CCOCC2)SC(c2cccc([N+](=O)[O-])c2)NC1=O (stereo not drawn) [9-L19, 6-(morpholin-4-yl)-2-(3-nitrophenyl)-4-oxo-3,4-dihydro-2H-1,3-thiazine-5-carbonitrile] | 86.9477%
CCCCNC(=O)C(C#N)=Cc1ccc(Cl)cc1Cl [9-O07, N-butyl-2-cyano-3-(2,4-dichlorophenyl)prop-2-enamide] | 83.4126%
